# Source: the supplement of paper PMC3334620
# The full ranking holds about 33,000 sequences; the median of “E-score (-0.5 to 0.5)” is about -0.036, and the highest 2% start at about 0.37. The list shows a part of the results.
# Biological target: T1, Yer064c (UniProt P40041)
# T1 sequence: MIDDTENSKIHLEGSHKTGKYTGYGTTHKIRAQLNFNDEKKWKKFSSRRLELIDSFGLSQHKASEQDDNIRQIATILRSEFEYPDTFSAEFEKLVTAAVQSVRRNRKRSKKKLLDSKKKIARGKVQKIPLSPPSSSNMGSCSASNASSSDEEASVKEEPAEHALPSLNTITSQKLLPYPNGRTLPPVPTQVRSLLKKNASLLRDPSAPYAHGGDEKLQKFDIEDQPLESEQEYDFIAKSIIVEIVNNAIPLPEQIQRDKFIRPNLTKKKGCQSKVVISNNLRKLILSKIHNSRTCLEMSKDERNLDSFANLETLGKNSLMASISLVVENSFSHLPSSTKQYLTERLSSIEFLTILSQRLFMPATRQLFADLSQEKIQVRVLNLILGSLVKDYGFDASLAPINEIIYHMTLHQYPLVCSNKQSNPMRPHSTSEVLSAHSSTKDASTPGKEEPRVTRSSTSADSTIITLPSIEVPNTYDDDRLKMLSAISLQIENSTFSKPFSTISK
# Test: PBM E-score (8-mer binding enrichment) (E-score (-0.5 to 0.5)); higher = stronger / more preferred TF binding; most listed sequences are background and not binding sites
# Settings: protein concentration: 200 nM; construct: GST-full length
# Outline: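 The E-score, a modified Wilcoxon-Mann-Whitney statistic, was computed by the Universal PBM Analysis Suite for every ungapped eight-base word pooled with its reverse complement. Scans behind it were normalised with masliner after bound GST-tagged yeast transcription factors were detected with fluorescent anti-GST. The proteins, at about 100-200 nM, had been applied to universal all-10-mer Agilent arrays made double-stranded by primer extension.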
row,Sequence,PBM E-score
1,ACGTGCGA,-0.198
2,CTCACCAA,0.183
3,ATGGAATC,0.249
4,CAGCACCC,-0.0897
5,GCTGGCAC,-0.175
6,ATCAAGAG,0.175
7,ATTTGTCC,0.00587
8,ATTGGACC,-0.188
9,ATGAATGG,-0.00961
10,AGGCTCAA,0.111
11,CGCAATTC,-0.153
12,ACGCGTAA,-0.00741
13,CAAAGCGC,-0.133
14,ACCCGGAT,-0.167
15,ACACGGCG,-0.00051
16,CGGACCAG,-0.149
17,ACCACAGG,-0.0474
18,ATCCCGCC,-0.272
19,ATCTCACG,-0.0745
20,ATCCTTAG,-0.107
21,GGCTATAA,0.0182
22,AGATAGAT,-0.159
23,GCAACAGA,-0.0573
24,AACCTCAT,-0.0612
25,GTATACGA,0.00578

row,Sequence,PBM E-score
1,AATGAACA,0.129
2,TTAAACAA,0.128
3,CATCCGGG,-0.241
4,CAAAAGGC,-0.0635
5,GGCACGCC,-0.33
6,CATTTTCC,-0.112
7,CATTGATC,0.061
8,ATGTATAC,-0.0163
9,GACGAGCC,0.0215
10,CGGGCCTA,-0.145
11,GAACTTTA,-0.16
12,CGGCCACA,-0.272
13,ACGACCCA,-0.0194
14,GCATGCTA,-0.292
15,ACATCTCT,0.098
16,CTAGCTTC,-0.0301
17,AACATTTG,-0.159
18,GGCAAAAA,-0.0878
19,AAAACGCG,-0.0879
20,AGTCGTCA,0.389
21,ACCACCTC,-0.175
22,TGGCCAAA,-0.187
23,GGAGGGTA,-0.133
24,CCCTACAA,-0.0271
25,CGCCAGTA,-0.0231

row,Sequence,PBM E-score
1,GATTCGCC,0.139
2,CAGTTTCC,0.0161
3,AAGGTCCG,-0.313
4,GATCGTAC,-0.212
5,ACCGGAGC,-0.223
6,AAGCAGGT,-0.246
7,CGGCATCC,-0.188
8,CAACCTCG,-0.15
9,CGAATACG,-0.0137
10,TAGAGGGA,-0.0956
11,CGTATACC,-0.0832
12,CTGTAAAC,-0.228
13,ACGCCACA,-0.269
14,CTTCCCTC,-0.101
15,ACCTCCCT,-0.107
16,AGTAAGTC,0.354
17,AATCCCGC,-0.00446
18,CCAATCTA,-0.0221
19,CTATCTAC,-0.029
20,GCCTGACA,-0.338
21,TGGAGAAA,-0.129
22,TCTGTGCA,0.0016
23,TACCAACA,0.0555
24,GGTCAACC,-0.0162
25,CCTCAGCC,-0.144

row,Sequence,PBM E-score
1,AGCTTTAA,-0.0271
2,GAATCGTA,0.261
3,GAGAGCAA,-0.221
4,GCTAAACC,-0.0482
5,AGATTACA,0.174
6,ACTAAGAC,0.335
7,GTTCGCGA,0.0471
8,CTGTCCCA,-0.101
9,CTCGTCAA,0.129
10,GAGCCGCC,-0.205
11,AGTTATAC,-0.0065
12,ACCGAGAC,0.0452
13,GCATGTCA,-0.0942
14,GCTTCAAC,-0.16
15,CGTCGAAA,-0.101
16,GGCCGAAC,-0.254
17,CCCTCCGG,-0.363
18,AAATAACC,0.0207
19,AATTTTGG,-0.135
20,CCAAAGAG,0.0884
21,TCGTATAA,0.157
22,GAGGTGAA,-0.0478
23,ACGAGTAC,0.259
24,CAACCGTG,-0.0244
25,CCCACATC,-0.112

row,Sequence,PBM E-score
1,CACGCCCA,-0.171
2,AAGGAATA,-0.0678
3,CGGCGGGA,-0.213
4,ATACGCCA,-0.173
5,AGAGGAGG,-0.184
6,AAGTTCGT,-0.231
7,GAGCTGCA,-0.152
8,AGATTAGA,0.158
9,CCGTCATC,-0.098
10,ATGATTCA,0.49
11,ATGACCTA,0.225
12,CGCGCCCC,-0.271
13,ACTAATCT,0.273
14,ACACGATC,-0.0228
15,AGGCTGGA,-0.00933
16,CATCCGCC,-0.131
17,CTTTATAC,-0.0681
18,CAGACTCC,0.187
19,ACAAGTAA,-0.0252
20,CGCCAGAC,-0.0536
21,GAATACCC,-0.112
22,CTGCGCTA,-0.0642
23,GCCGGAGA,-0.0453
24,CCATGACG,0.0206
25,GCCTCCAA,-0.205

row,Sequence,PBM E-score
1,AGACGAGC,-0.186
2,GCTTTTAA,-0.0605
3,TGAAATAA,-0.00913
4,CTAAAATC,0.0443
5,TACGAGAA,-0.0441
6,CCGCATCG,-0.0628
7,TCGCGAAA,-0.0959
8,GTGGTACA,-0.0879
9,AACAGGAG,-0.0797
10,CGCGTGAC,0.233
11,AGATTTCC,-0.0852
12,ACGTTCTA,-0.0941
13,AAGGCAAA,-0.139
14,CGACATCC,-0.29
15,ACCGCTTG,-0.0956
16,CAACGGGA,-0.116
17,AGTAGAAT,-0.0585
18,GCCGACTA,0.334
19,CTGGTCTA,-0.15
20,CACTGGCC,-0.0935
21,AGAAGATA,0.171
22,CGTTTATA,-0.00381
23,CCATTAAA,-0.118
24,CTCCGCAA,-0.0345
25,CTTCCGGC,-0.221

row,Sequence,PBM E-score
1,CCTCGAGG,-0.0203
2,CGATACTA,-0.158
3,TGATGGCA,-0.364
4,CACTATCG,-0.137
5,AGCTTCGG,-0.022
6,ATGATTGC,0.375
7,AGGGGTGC,-0.273
8,CATCTGAG,0.0912
9,ACGCAGCA,-0.206
10,GATAAGCA,-0.286
11,AGGCACAC,-0.235
12,ACGTGACC,-0.137
13,GTGAGAGA,-0.0044
14,CACCCATA,0.0115
15,GATGGACA,0.0247
16,CAAAGACC,-0.0823
17,GAATCGGC,-0.0226
18,CCAGGTTA,-0.00118
19,GTTCAAAA,-0.0391
20,ACCGGCTC,-0.221
21,ACACCTCA,-0.12
22,CTATGATC,0.155
